Measurements as given in PubChem BioAssay AID1460 (National Center for Advancing Translational Sciences (NCATS), 2008).
The campaign covered roughly 270,000 compounds. About 5,800 (2.1%) were called active. Inconclusive results, whose numbers are uncertain, are shown with a selection of clear calls. Calls come from the whole dose curve; as a rule, active = well fitted inhibition curve with a large enough effect; inconclusive = small, poorly fitted or top-dose-only effect; inactive = flat fitted curve, though single readings scatter. Potencies of inconclusive entries are doubtful fits and often do not repeat.

target: Microtubule-associated protein tau (Homo sapiens) (UniProt P10636); experiment: qHTS for Inhibitors of Tau Fibril Formation, Thioflavin T Binding; details: recombinant tau K18 P301L, heparin-induced fibrillization, ThT fluorescence; series mostly up to 57.4 µM; note: nearly all actives have a fitted effect of over 55% in size
Sequence of UniProt P10636 (P10636 whole entry, looked up): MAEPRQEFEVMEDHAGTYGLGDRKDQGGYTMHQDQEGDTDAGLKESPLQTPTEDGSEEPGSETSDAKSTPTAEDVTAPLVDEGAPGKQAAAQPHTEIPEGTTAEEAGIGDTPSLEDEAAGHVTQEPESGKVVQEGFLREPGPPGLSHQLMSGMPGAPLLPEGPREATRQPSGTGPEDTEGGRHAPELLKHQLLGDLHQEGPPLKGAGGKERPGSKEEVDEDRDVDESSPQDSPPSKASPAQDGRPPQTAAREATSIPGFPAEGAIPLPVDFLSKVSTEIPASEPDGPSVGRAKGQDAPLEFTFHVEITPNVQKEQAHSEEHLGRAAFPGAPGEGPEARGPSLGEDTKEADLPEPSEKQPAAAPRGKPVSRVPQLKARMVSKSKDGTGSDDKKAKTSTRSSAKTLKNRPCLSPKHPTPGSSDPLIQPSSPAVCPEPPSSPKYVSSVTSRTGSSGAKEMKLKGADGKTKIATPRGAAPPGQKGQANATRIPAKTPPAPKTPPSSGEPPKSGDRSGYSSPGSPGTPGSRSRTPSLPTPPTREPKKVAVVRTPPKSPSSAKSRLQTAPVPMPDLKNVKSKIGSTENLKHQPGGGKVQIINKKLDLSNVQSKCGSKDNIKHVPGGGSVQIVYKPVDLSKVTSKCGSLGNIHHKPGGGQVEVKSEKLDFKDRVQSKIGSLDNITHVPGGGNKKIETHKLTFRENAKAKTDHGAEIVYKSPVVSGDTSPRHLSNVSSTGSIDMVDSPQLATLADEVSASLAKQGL
Summary of the method: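 Fibril formation assay: tau K18 P301L at 15 uM with trace Alexa 594 label, heparin inducer 20 uM, pH 7 sodium acetate buffer, 37 C for 6 hr; endpoint ThT signal.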
Potency is the fitted concentration of half-maximal effect; tags give direction and shape of the fitted curve.

SMILES	Potency
Cc1cccc(OCCSc2nnc(-c3cccs3)o2)c1	inconclusive: 31.6 µM [inhibitor, single point]
Cc1cc2nc(SCC(=O)N(C)C)c3c(c2cc1C)CCCC3	inconclusive: 28.2 µM [inhibitor, partial curve]
Cc1ccc(S(=O)(=O)NC(C)(C)CSc2ncccn2)cc1	inactive
Clc1ccccc1OCCSc1nnc(-c2cccs2)o1	inconclusive: 22.4 µM [inhibitor, single point]
O=C(CN1CCOCCOCCOCC1)Nc1ccccc1	inactive
Cc1cc(C)c2cc(CN(CC3CCCO3)C(=S)NCc3ccco3)c(=O)[nH]c2c1 (stereo not given)	inactive
O/N=C(\c1ccc(Cl)cc1Cl)c1ncc(C(F)(F)F)cc1Cl	inconclusive: 39.8 µM [inhibitor, single point]
CCS(=O)(=O)N1CCc2cc(C(=O)NCc3ccccc3OC)ccc21	inconclusive: 39.8 µM [inhibitor, single point]
COc1cccc(-c2nc3ccccc3s2)c1	inconclusive: 3.55 µM [inhibitor, partial curve]
O=c1cc(O)c2ccccc2n1Cc1ccccc1	inconclusive: 35.5 µM [inhibitor, single point]
CC(C)(C)c1ccc(OCCOc2ccc(C(C)(C)C)cc2NC=O)c(NC=O)c1	inconclusive: 10 µM [inhibitor, partial curve]
CCC(Cn1nnc2ccccc2c1=O)NC(=O)Nc1ccccc1OC (stereo not given)	inactive
COc1ccc(-c2cc(-c3ccc(C)cc3)nc3c2COc2ccccc2-3)cc1	inactive
CCOc1ccc(CCNC(=O)c2cc3c(-c4ccccc4F)nn(C)c3s2)cc1	inconclusive: 2.51 µM [inhibitor, full curve]
CCCCc1cc(=O)oc2cc(C)cc(O)c12	inconclusive: 20 µM [inhibitor, partial curve, poor fit]
CSc1nc(NCCOCCO)c2sc3nc(-c4ccco4)c4c(c3c2n1)CCC4	inconclusive: 28.2 µM [inhibitor, partial curve]
Cn1cccc1/C=N/NC(=O)CNc1ccc2ccccc2c1	inconclusive: 20 µM [inhibitor, partial curve]
CCN(CC)c1ccc(-c2nc3cnccc3n2C)cc1	inconclusive: 15.8 µM [inhibitor, partial curve]
O=c1nc2s/c(=C\c3ccco3)c(=O)n2nc1Cc1ccc(F)cc1	inconclusive: 25.1 µM [inhibitor, partial curve]
COC(=O)C1=C(C)N(C)C(=O)/C1=C\c1cccs1	inconclusive: 28.2 µM [inhibitor, partial curve]
